# This is one part of the list. Sequences were assembled here from the parent chain. Inactive controls read about 0.05.
# B1: TEV protease; numbered along this chain (parent)
# chain: MGESLFKGPRDYNPISSSICHLTNESDGHTTSLYGIGFGPFIITNKHLFRRNNGTLVVQSLHGVFKVKDTTTLQQHLVDGRDMIIIRMPKDFPPFPQKLKFREPQREERICLVTTNFQTKSMSSMVSDTSCTFPSGDGIFWKHWIQTKDGQCGSPLVSTRDGFIVGIHSASNFTNTNNYFTSVPKNFMELLTNQEAQQWVSGWRLNADSVLWGGHKVFMVKPEEPFQPVKEATQL
# Variants of: B1
# Test: raw area under fraction-flipped curve 0-4 h after induction (AUC4h, not background-subtracted), DNA-recorder readout of cleavage of the substrate (dimensionless); higher = more cleavage of the substrate by the protease variant
# Conditions: temperature: 34 °C; time window: 0-4 h after rhamnose induction
# Description: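 In vivo DNA recorder in E. coli TOP10(DE3) ΔrhaA at 34 °C. Each TEVp single-site mutant (parent TEVp 0) is paired with a single-site variant of the 7-mer TEVs (canonical ENLYFQ|S). The substrate sits between flexible linkers in a Bxb1-sfGFP-TEVs-SsrA fusion, so cleavage stabilises Bxb1 and speeds flipping of a recombination array, read by NGS. The value is the raw area under the fraction-flipped curve over 0-4 h after rhamnose induction (AUC4h), with ≥20 reads per time point. It is not background-subtracted; inactive controls average about 0.047.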
# 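Also: Bxb1 expression induced with 0.2% (w/v) L-rhamnose at OD600 near 0.5, cultures sampled hourly, flipped fraction per protease–substrate barcode pair counted by paired-end Illumina sequencing.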
Variant,area with substrate ENLYFQA,area with substrate ENLYFQC,area with substrate ENLYFQD,area with substrate ENLYFQK,area with substrate ENLYFQL,area with substrate ENLYFQM,area with substrate ENLYFQN,area with substrate ENLYFQR,area with substrate ENLYFQS,area with substrate ENLYFQW,area with substrate ENLYFQH,area with substrate ENLYFQI,area with substrate ENLYFQP,area with substrate ENLYFQT,area with substrate ENLYFQV,area with substrate ENLYFQF,area with substrate ENLYFQG,area with substrate ENLYFQE,area with substrate ENLYFQY,area with substrate ENLYFQQ
W141T,0.061,0.0665,0.0628,0.0593,0.0416,0.0591,0.0585,0.0542,0.0637,0.049,–,–,–,–,–,–,–,–,–,–
S171D,0.0678,0.0757,–,–,–,0.0543,0.0456,0.0676,0.0617,0.062,0.0557,0.0554,0.0444,0.0663,0.0287,–,–,–,–,–
S171T,0.0909,–,–,–,–,–,–,–,0.123,0.0681,–,–,–,–,0.0575,0.0727,0.139,–,–,–
F163T,0.0652,–,–,–,0.0612,–,–,0.0617,0.0977,–,–,–,–,0.0592,–,–,0.101,–,–,–
N186S,0.108,0.112,–,0.0602,–,0.0676,–,0.0471,0.104,–,–,0.0568,–,0.0693,–,–,–,0.0841,0.0704,–
N186K,0.0599,0.111,–,0.0644,0.0572,0.0753,0.084,0.057,0.0903,0.0614,0.0744,0.0485,–,–,0.0648,–,–,–,0.0763,–
N186Q,0.107,0.119,–,0.0439,0.0712,–,0.0975,–,0.106,0.0823,0.0826,–,0.0598,0.0682,–,–,–,–,0.0822,–
N186C,0.103,0.107,–,0.0499,0.0619,0.0869,0.0903,–,0.0985,–,0.0692,0.0585,–,–,–,–,0.0766,–,–,–
T147C,0.0951,–,–,–,–,–,–,–,0.0861,0.0689,0.065,–,0.0667,0.0682,–,–,0.139,–,–,–
T147L,0.0948,0.0787,–,0.0559,0.0717,0.0539,0.0646,0.0555,0.0774,0.0743,0.0683,0.0952,0.0492,0.0549,0.0604,0.0419,0.0908,–,–,–
T147D,0.0498,–,–,–,–,–,0.0737,0.0586,0.0638,–,0.049,–,–,0.0688,–,–,–,0.079,–,0.0829
N193D,0.0893,–,–,–,0.0438,0.071,–,0.0615,0.0972,–,0.0843,–,–,0.0651,–,–,–,–,0.063,–
N193E,0.0867,0.101,–,0.06,–,0.0789,0.0843,–,0.0913,0.0627,–,0.0584,0.0557,0.0659,–,–,0.0601,–,0.0734,–
I164S,0.0568,0.0462,0.0786,0.0608,0.0518,–,–,0.0563,0.0597,–,0.0764,0.0539,–,0.0523,0.0494,0.0479,0.0457,0.0485,0.0569,0.0613
M188D,0.128,0.124,0.0757,0.0593,0.0545,0.0567,0.0707,0.0594,0.102,0.0546,–,0.0599,0.0554,0.0536,0.0677,–,0.076,–,0.0755,0.0723
M188I,0.124,–,–,0.0219,0.0485,–,0.0819,0.0592,0.113,0.0412,0.0849,–,–,–,–,–,0.113,0.058,–,–
F187W,0.079,0.102,0.063,0.0719,0.057,0.0654,0.0548,0.0554,0.0787,0.0665,0.0643,–,0.0742,0.0629,–,–,0.075,–,0.0734,–
F187T,0.0775,0.103,–,–,0.0557,–,–,–,0.09,0.0484,–,–,0.0261,–,–,0.0656,0.0952,–,0.0684,–
L191V,0.0925,0.0914,–,–,0.0568,0.0832,0.0879,0.0623,0.0966,–,0.0736,–,–,0.0494,–,–,0.0656,–,0.0911,0.0619
D137E,0.0584,0.127,0.0764,0.0471,0.0678,0.087,0.0766,0.0651,0.112,0.0816,0.0895,–,–,0.0779,0.0795,–,0.109,–,–,0.0661
H143T,0.0606,0.0982,0.0554,0.0704,0.0599,0.0732,–,0.0558,0.0807,0.0555,0.0707,0.0615,–,0.0587,–,0.0618,–,–,–,–
S169Q,0.0672,0.0599,0.0659,0.0647,0.0459,0.0505,0.0731,0.0535,0.0594,–,0.0504,0.0501,0.0531,0.0563,0.0615,0.0662,–,–,0.051,0.0505
S169G,0.0644,0.0663,0.0508,–,0.0548,0.0605,0.0561,0.0486,0.0634,0.0608,0.0706,–,0.0672,0.0589,–,–,0.044,–,0.0106,0.0725
P155R,0.0627,0.0479,0.0564,0.0557,–,0.0457,0.0554,0.051,0.0525,0.0555,0.0534,0.0389,–,0.0548,0.0487,0.0494,0.0623,–,0.0517,0.0702
Q146L,0.126,0.149,0.0597,–,–,0.122,0.0749,0.0574,0.13,0.0701,–,–,–,0.0689,–,0.0759,–,–,–,–
T174H,0.0909,0.0789,–,0.0622,0.0586,0.04,0.0764,–,0.083,0.0468,–,0.0586,–,0.0693,–,–,–,–,–,–
K142C,0.0886,–,–,0.0572,0.068,–,0.0724,0.0745,0.0914,0.0592,–,0.0635,0.0624,–,–,–,0.0796,0.0602,–,–
K142Q,0.0996,0.113,0.0675,0.0678,0.0783,0.0917,0.0867,0.0584,0.096,–,–,0.032,0.0641,0.0704,0.0571,0.0675,–,–,–,–
Y179I,0.0548,–,–,–,0.0611,–,0.0562,0.0676,0.0609,–,0.0614,–,–,–,–,–,–,–,0.063,–
